# This is one part of the list.
# B1: PX9961J-bvu-499-24-499 (Bacteroides vulgatus) (protein)
# chain: LNTDPSTAVPSDDAIKNIDDAQVALNGIYRLASAHSYYGDNYLYYADCRGEDVQARINKGAGRRVSPYYFFDVTADDNFNITLVWNQPYKVIHQANSLIEKLDAGNAGNARPEEVARIKSEALAMRGLALFDLTRLFGMPYTLDNGASLGVPIEIQTTLEDHAPERNTVAQCYEQVLKDLNDALGGLTKEKHDAYMNYWSVKALLSRVYLYMNDNENALKCAEEVINDNGGIYRLFTHDEYPSVWGKDFNSESLFEFYFTMSEPSGGSGGEGAPMVYADNVKDWNNLILTKAYLDLLNEDPEDVRHVFPHLPENAVADTLPVAAKGQPKYLIKYPGKSGSVTDAVSTVNPQDNDLCILRLSEVYLNAAEAAFKIGNTEKALTYLNAIVTRANPAKSVTSADLSLERILKERRKELVGEGHAFFDYMRNGKSVDRSGGWHLTMPEDARVIAPSDPRVALPIPQTEIDANPNIVQNPR
# Legend:
# Assay in all cases: glycan array binding signal (z-score within array); higher = stronger binding
# Settings in all cases: glycan notation: IUPAC condensed, linker removed
# [1] = target: Fuc(a1-2)Gal
# In short: (§1)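 Glycan array data came from 3228 arrays in the Consortium for Functional Glycomics database, and only arrays with an available protein sequence were kept. Glycan names were put into IUPAC-condensed notation, and columns mapping to the same glycan were averaged. The binding signal is a within-array Z-score, averaged across arrays of one protein sequence run at different concentrations or buffers and across linkers. A negative Z-score can be read as non-binding.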
# [2] = target: Fuc(a1-2)Gal(b1-3)GalNAc
# In short: as §1
# [3] = target: Fuc(a1-2)Gal(b1-3)GalNAc(a1-3)[Fuc(a1-2)]Gal(b1-4)Glc
# In short: as §1
# [4] = target: Fuc(a1-2)Gal(b1-3)GalNAc(a1-3)[Fuc(a1-2)]Gal(b1-4)GlcNAc
# In short: as §1
# [5] = target: Fuc(a1-2)Gal(b1-3)GalNAc(b1-3)Gal
# In short: as §1
# [6] = target: Fuc(a1-2)Gal(b1-3)GalNAc(b1-3)Gal(a1-4)Gal(b1-4)Glc
# In short: as §1
# [7] = target: Fuc(a1-2)Gal(b1-3)GalNAc(b1-4)[Neu5Ac(a2-3)]Gal(b1-4)Glc
# In short: as §1
# [8] = target: Fuc(a1-2)Gal(b1-3)GlcNAc
# In short: as §1
# [9] = target: Fuc(a1-2)Gal(b1-3)GlcNAc(b1-2)Man(a1-3)[Fuc(a1-2)Gal(b1-3)GlcNAc(b1-2)Man(a1-6)]Man(b1-4)GlcNAc(b1-4)GlcNAc
# In short: as §1
# [10] = target: Fuc(a1-2)Gal(b1-3)GlcNAc(b1-2)Man(a1-3)[Fuc(a1-2)Gal(b1-3)GlcNAc(b1-2)Man(a1-6)]Man(b1-4)GlcNAc(b1-4)[Fuc(a1-6)]GlcNAc
# In short: as §1
# [11] = target: Fuc(a1-2)Gal(b1-3)GlcNAc(b1-3)Gal(b1-4)Glc
# In short: as §1
# [12] = target: Fuc(a1-2)Gal(b1-3)GlcNAc(b1-3)GalNAc
# In short: as §1
# [13] = target: Fuc(a1-2)Gal(b1-3)GlcNAc(b1-3)[Fuc(a1-2)Gal(b1-3)GlcNAc(b1-6)]GalNAc
# In short: as §1
# [14] = target: Fuc(a1-2)Gal(b1-3)GlcNAc(b1-3)[Gal(b1-4)GlcNAc(b1-6)]Gal(b1-4)Glc
# In short: as §1
# [15] = target: Fuc(a1-2)Gal(b1-3)GlcNAc(b1-3)[Neu5Ac(a2-6)Gal(b1-4)GlcNAc(b1-6)]Gal(b1-4)Glc
# In short: as §1
# [16] = target: Fuc(a1-2)Gal(b1-3)GlcNAc6S
# In short: as §1
# [17] = target: Fuc(a1-2)Gal(b1-3)[Fuc(a1-4)]GlcNAc
# In short: as §1
# [18] = target: Fuc(a1-2)Gal(b1-3)[Fuc(a1-4)]GlcNAc(b1-2)Man(a1-3)[Fuc(a1-2)Gal(b1-3)[Fuc(a1-4)]GlcNAc(b1-2)Man(a1-3)]Man(b1-4)GlcNAc(b1-4)GlcNAc
# In short: as §1
# [19] = target: Fuc(a1-2)Gal(b1-3)[Fuc(a1-4)]GlcNAc(b1-2)Man(a1-3)[Fuc(a1-2)Gal(b1-3)[Fuc(a1-4)]GlcNAc(b1-2)Man(a1-6)]Man(b1-4)GlcNAc(b1-4)[Fuc(a1-6)]GlcNAc(b1-4)[Fuc(a1-6)]GlcNAc
# In short: as §1
# [20] = target: Fuc(a1-2)Gal(b1-3)[Fuc(a1-4)]GlcNAc(b1-3)[Fuc(a1-3)[Gal(b1-4)]GlcNAc(b1-6)]Gal(b1-4)Glc
# In short: as §1
# [21] = target: Fuc(a1-2)Gal(b1-3)[Fuc(a1-4)]GlcNAc(b1-3)[Gal(b1-4)GlcNAc(b1-6)]Gal(b1-4)Glc
# In short: as §1
# [22] = target: Fuc(a1-2)Gal(b1-4)Glc
# In short: as §1
# [23] = target: Fuc(a1-2)Gal(b1-4)Glc6S
# In short: as §1
# [24] = target: Fuc(a1-2)Gal(b1-4)GlcNAc
# In short: as §1
# [25] = target: Fuc(a1-2)Gal(b1-4)GlcNAc(b1-2)Man
# In short: as §1
# [26] = target: Fuc(a1-2)Gal(b1-4)GlcNAc(b1-2)Man(a1-3)[Fuc(a1-2)Gal(b1-4)GlcNAc(b1-2)Man(a1-6)]Man(b1-4)GlcNAc(b1-4)GlcNAc
# In short: as §1
# [27] = target: Fuc(a1-2)Gal(b1-4)GlcNAc(b1-2)Man(a1-3)[Fuc(a1-2)Gal(b1-4)GlcNAc(b1-2)Man(a1-6)]Man(b1-4)GlcNAc(b1-4)[Fuc(a1-6)]GlcNAc
# In short: as §1
# [28] = target: Fuc(a1-2)Gal(b1-4)GlcNAc(b1-2)[Fuc(a1-2)Gal(b1-4)GlcNAc(b1-4)]Man(a1-3)[Fuc(a1-2)Gal(b1-4)GlcNAc(b1-2)Man(a1-6)]Man(b1-4)GlcNAc(b1-4)GlcNAc
# In short: as §1
# [29] = target: Fuc(a1-2)Gal(b1-4)GlcNAc(b1-3)Gal(b1-4)GlcNAc
# In short: as §1
# [30] = target: Fuc(a1-2)Gal(b1-4)GlcNAc(b1-3)Gal(b1-4)GlcNAc(b1-2)Man(a1-3)[Fuc(a1-2)Gal(b1-4)GlcNAc(b1-3)Gal(b1-4)GlcNAc(b1-2)Man(a1-6)]Man(b1-4)GlcNAc(b1-4)GlcNAc
# In short: as §1
# [31] = target: Fuc(a1-2)Gal(b1-4)GlcNAc(b1-3)Gal(b1-4)GlcNAc(b1-3)Gal(b1-4)GlcNAc
# In short: as §1
# [32] = target: Fuc(a1-2)Gal(b1-4)GlcNAc(b1-3)GalNAc
# In short: as §1
# [33] = target: Fuc(a1-2)Gal(b1-4)GlcNAc(b1-3)[Fuc(a1-2)Gal(b1-4)GlcNAc(b1-6)]GalNAc
# In short: as §1
# [34] = target: Fuc(a1-2)Gal(b1-4)GlcNAc(b1-3)[Fuc(a1-3)[Gal(b1-4)]GlcNAc(b1-6)]Gal(b1-4)Glc
# In short: as §1
# [35] = target: Fuc(a1-2)Gal(b1-4)GlcNAc(b1-6)GalNAc
# In short: as §1
# [36] = target: Fuc(a1-2)Gal(b1-4)GlcNAc6S
# In short: as §1
# [37] = target: Fuc(a1-2)Gal(b1-4)[Fuc(a1-3)]GlcNAc
# In short: as §1
binder,measurement,setting,value
B1,glycan array binding signal (z-score),[1],0.069
same,glycan array binding signal (z-score),[2],-0.212
same,glycan array binding signal (z-score),[3],-0.253
same,glycan array binding signal (z-score),[4],0.315
same,glycan array binding signal (z-score),[5],-0.622
same,glycan array binding signal (z-score),[6],-0.372
same,glycan array binding signal (z-score),[7],0.001
same,glycan array binding signal (z-score),[8],1
same,glycan array binding signal (z-score),[9],0.386
same,glycan array binding signal (z-score),[10],0.145
same,glycan array binding signal (z-score),[11],-0.355
same,glycan array binding signal (z-score),[12],-0.096
same,glycan array binding signal (z-score),[13],1.22
same,glycan array binding signal (z-score),[14],-0.465
same,glycan array binding signal (z-score),[15],-0.281
same,glycan array binding signal (z-score),[16],-0.102
same,glycan array binding signal (z-score),[17],-0.771
same,glycan array binding signal (z-score),[18],-0.116
same,glycan array binding signal (z-score),[19],0.172
same,glycan array binding signal (z-score),[20],-0.715
same,glycan array binding signal (z-score),[21],0.144
same,glycan array binding signal (z-score),[22],0.008
same,glycan array binding signal (z-score),[23],-0.261
same,glycan array binding signal (z-score),[24],-0.538
same,glycan array binding signal (z-score),[25],-0.398
same,glycan array binding signal (z-score),[26],0.383
same,glycan array binding signal (z-score),[27],-0.244
same,glycan array binding signal (z-score),[28],-0.696
same,glycan array binding signal (z-score),[29],-0.607
same,glycan array binding signal (z-score),[30],0.242
same,glycan array binding signal (z-score),[31],-0.559
same,glycan array binding signal (z-score),[32],-0.323
same,glycan array binding signal (z-score),[33],0.343
same,glycan array binding signal (z-score),[34],-0.358
same,glycan array binding signal (z-score),[35],0.475
same,glycan array binding signal (z-score),[36],0.163
same,glycan array binding signal (z-score),[37],0.154
